# Test results as given in PubChem BioAssay AID488969 (Vanderbilt High Throughput Screening Facility, 2010).
# The full ranking holds about 110,000 compounds; the median of “z-score” is about -0.1, and the highest 2% start at about 2. The list shows a part of the results.
# Target: Metabotropic glutamate receptor 8 (Rattus norvegicus) (UniProt P70579)
# Test: rat mGluR8 modulators via GIRK flux, primary screen, cell-based, thallium flux, HTS (AID 488969)
# Settings: HEK293 rat mGluR8, GIRK (G protein-gated inwardly rectifying potassium channel) thallium flux, FluoZin2; at 10 µM; stronger effect = higher value; submaximal glutamate (EC20) added with thallium
# UniProt P70579, sequence (P70579 whole entry, looked up): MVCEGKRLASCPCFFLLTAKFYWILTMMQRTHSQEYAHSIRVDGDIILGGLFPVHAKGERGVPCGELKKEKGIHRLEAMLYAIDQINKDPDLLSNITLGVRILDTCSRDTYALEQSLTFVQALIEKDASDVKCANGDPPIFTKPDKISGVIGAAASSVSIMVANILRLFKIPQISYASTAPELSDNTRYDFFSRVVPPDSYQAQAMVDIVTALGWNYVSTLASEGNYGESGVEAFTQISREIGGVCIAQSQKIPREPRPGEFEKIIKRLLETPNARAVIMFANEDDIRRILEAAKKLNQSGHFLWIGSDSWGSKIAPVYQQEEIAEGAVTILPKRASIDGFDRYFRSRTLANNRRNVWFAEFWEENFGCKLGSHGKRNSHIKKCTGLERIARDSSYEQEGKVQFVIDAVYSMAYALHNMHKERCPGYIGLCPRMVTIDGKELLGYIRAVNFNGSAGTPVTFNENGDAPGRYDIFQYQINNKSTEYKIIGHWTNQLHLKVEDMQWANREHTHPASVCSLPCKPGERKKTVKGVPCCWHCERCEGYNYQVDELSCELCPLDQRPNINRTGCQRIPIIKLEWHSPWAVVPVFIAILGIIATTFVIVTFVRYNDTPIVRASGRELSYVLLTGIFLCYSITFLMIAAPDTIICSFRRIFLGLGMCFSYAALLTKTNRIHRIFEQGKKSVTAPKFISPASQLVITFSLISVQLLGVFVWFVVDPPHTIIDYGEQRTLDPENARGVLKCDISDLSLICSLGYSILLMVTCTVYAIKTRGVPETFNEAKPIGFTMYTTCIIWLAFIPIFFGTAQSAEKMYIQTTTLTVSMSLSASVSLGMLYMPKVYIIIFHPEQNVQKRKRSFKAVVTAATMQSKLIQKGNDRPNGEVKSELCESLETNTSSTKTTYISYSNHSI
row,Structure (SMILES),z-score
1,O=C(NCCc1ccc(Cl)cc1)C1CCC(=O)N1Cc1ccc(F)cc1 (stereo not given),0.647
2,CCOC(=O)N/N=C(\C)c1ccc(Br)cc1,0.102
3,COc1cccc(-c2nn(-c3ccccc3)cc2C(=O)OCC(=O)Nc2ncc(Cl)cc2Cl)c1,-0.115
4,Cc1ccccc1OCC(=O)N/N=C/c1ccc([N+](=O)[O-])o1,0.0773
5,CN=c1scc(-c2cc(OC)ccc2OC)n1/N=C/c1c(C)[nH]c2ccccc12,-0.21
6,CCOC(=O)N1CCC(Nc2nc3ccccc3n3cnnc23)CC1,0.383
7,CCCc1nc2ccccc2c(=O)n1/N=C/c1ccccc1O,-0.573
8,CCCCNC(=O)c1cc(-c2ccc(F)cc2)on1,-0.367
9,CC(=O)c1ccc(NC(=O)c2ccn(C(=O)OCC(C)C)n2)cc1,-0.316
10,COc1cc(C)nc(OCCNC(=O)COc2ccc(Cl)cc2Cl)n1,0.0611
11,COc1ccc(-c2csc(NC(=O)CN3C(=O)CCC3=O)n2)c(OC)c1,0.469
12,Cc1ccc(SCC(=O)NCCSC(C)(C)C)cc1,-0.206
13,Cc1ccc(CNC(=O)CS(=O)(=O)CC(=O)O)cc1,-0.409
14,CCOC(=O)CSc1n[nH]c(NC(=O)c2ccccc2)n1,0.788
15,CCOC(=O)c1sc2nc(C)nc(SCC(N)=O)c2c1C,0.749
16,COc1cc(/C=C(\NC(C)=O)C(=O)Nc2ccccc2C)ccc1OC(C)=O,-0.122
17,CN(C)/C=C(/C(=O)c1ccc(Cl)cc1)S(=O)(=O)c1ccccc1,-0.0445
18,COCCCNC(=O)c1ccc(CS(=O)(=O)Cc2cccc(C)c2)o1,-2.42
19,COc1ccc(C(C)C)cc1S(=O)(=O)Nc1ccc(Cl)cn1,-0.0815
20,O=C(COC(=O)c1cccs1)NCC1CCCO1 (stereo not given),-0.27
21,CN1CCN(S(=O)C23CC4CC(CC(C4)C2)C3)CC1 (stereo not given),-0.326
22,CCC(=O)N1c2ccc(S(=O)(=O)CCC(=O)NCCC3=CCCCC3)cc2CC1C (stereo not given),-0.134

row,Structure (SMILES),z-score
1,Cc1cc(C)nc(NC(=O)Cc2ccc([N+](=O)[O-])cc2)c1,-0.159
2,CCc1ccc(CCC(=O)Nc2ccc(C(C)=O)cc2)o1,0.203
3,CCOC(=O)CC1(CC(=O)OCC)NC(=O)c2c(C)sc(C(=O)OCC)c2N1,-0.0329
4,CCOc1nc(N=C(N)N)nc2c(C)cccc12,-0.494
5,O=C(c1ccccc1)N1CCCOC1c1ccccc1 (stereo not given),-0.0715
6,COc1cccc(C2/C(=C(\O)c3ccc4c(c3)OCO4)C(=O)C(=O)N2CCN(C)C)c1OC (stereo not given),0.384
7,CCCCn1nc2cc(C(=O)NCc3ccccc3OC)ccc2c1OCC,-0.532
8,COc1ccc(Cc2nnc(SC)[nH]c2=O)cc1,-0.128
9,O=C(c1cc2ccccc2oc1=O)N1CCCC1,-0.118
10,CCOc1ccc(S(=O)(=O)N/N=C(\C)c2ccc(Cl)c(Cl)c2Cl)cc1,-0.157
11,N#CC1=C(N)n2c(s/c(=C\c3ccco3)c2=O)=C(C#N)C1c1ccco1 (stereo not given),-0.104
12,O=c1oc2ccccc2cc1-c1csc(Nc2nc3ccc(F)cc3s2)n1,-0.209
13,COc1ccc(C(C(=O)Nc2ccc3c(c2)OCO3)N(C)C(=O)Cc2c[nH]c3ccccc23)cc1 (stereo not given),-0.863
14,CCOc1ccc(C(=O)NC(=S)Nc2ccc(NC(=O)CC)cc2)cc1[N+](=O)[O-],-0.224
15,COc1ccc(NC(=O)CN(C)CC(=O)Nc2ccccc2SC)cc1,-2.3
16,COc1ccc(Cn2c(CCC(=O)O)nc3cccnc32)cc1,-0.257
17,O=C1c2ccccc2C(=O)N1CCCCSc1nnnn1-c1ccccc1,-0.385
18,O=C(CCNS(=O)(=O)c1ccc(Cl)cc1)NCc1cccnc1,0.448
19,CCC(C(=O)Nc1ccccc1C(=O)N1CCCC1)N1C(=O)c2ccccc2C1=O (stereo not given),-0.213
20,CCOC(=O)c1c(N)sc2c(OCC)c(Br)ccc12,0.151
21,COC(=O)/C(=C/c1c[nH]c2ccccc12)[N+](=O)[O-],-0.494
22,OC(COc1cc(Cl)c(Cl)cc1Cl)CN1CCN(c2ncccn2)CC1 (stereo not given),-0.154

row,Structure (SMILES),z-score
1,CCCCNCc1ccc(SC)cc1,0.0485
2,CCN(Cc1ccccc1)S(=O)(=O)c1ccc(S(=O)(=O)N2CCN(C)CC2)cc1,-0.106
3,CCC1=NN=C(c2ccc(F)cc2)C(c2c[nH]c3ccccc23)N1O (stereo not given),0.437
4,CCCn1c2c(c(O)c(C(=O)Nc3ccc(OCC)cc3)c1=O)CCCC2,-1.03
5,Cc1ccc2nc(N(CCCN(C)C)C(=O)c3cc4ccccc4oc3=O)sc2c1,0.339
6,CCOC(=O)c1cnc(SCC(=O)Nc2ccccc2N2CCOCC2)nc1N,-0.0952
7,Cc1cc(NC(=O)CCCSc2nc(-c3ccco3)cc(C(F)(F)F)n2)no1,0.331
8,COc1ccc(S(=O)(=O)N2CCCC2C(=O)Nc2nccs2)cc1 (stereo not given),-0.428
9,CC(=O)c1ccc(NC(=O)C(Cc2ccccc2)NC(=O)c2ccco2)cc1 (stereo not given),-0.126
10,CCOc1cc(/C=N/O)ccc1OCc1ccc(C)cc1,0.0276
11,Clc1ccc(-c2nnc(CCc3ccccc3)o2)c(Cl)c1,-0.318
12,Cc1ccc(C)n1-n1c(C)nc2scc(-c3ccccc3)c2c1=O,-0.882
13,CCOC(=O)C(C)Sc1nc2c(c(-c3cccs3)c1C#N)CCC2 (stereo not given),-0.421
14,CCCCC(O)(CCN1CCOCC1)c1ccc(Cl)cc1 (stereo not given),-0.334
15,Cc1ccc(CON=C2CCN(c3ncc(C(F)(F)F)cc3Cl)CC2)cc1,0.0323
16,Brc1ccc(-c2csc(NNC3=NCCCCC3)n2)cc1,-0.435
17,Cc1ccccc1NC(=S)N(C)C1(c2ccccc2Cl)CCCCC1=O (stereo not given),-0.321
18,COc1ccccc1N1CCN(C(=O)CSc2nc(C)cc(=O)[nH]2)CC1,-0.206
19,CCCn1nc(-c2ccccc2)c2nc3ccccc3nc21,0.0864
20,Cc1ccc(-c2nc3sc4c(c3c(=O)n2N)CC(C)(C)OC4)cc1,0.25
21,S=c1[nH]nc(-c2ccc3ccccc3n2)n1-c1ccc(Cl)cc1,0.934
22,CCOc1ccccc1NC(=O)COC(=O)CNS(=O)(=O)c1ccc(C)cc1,-0.2

row,Structure (SMILES),z-score
1,O=C(NCc1ccncc1)Nc1ccccc1,-0.0117
2,Cc1ccc(C)c(OCCn2cc(/C=C(\C#N)C(=O)NCc3cccs3)c3ccccc32)c1,-0.0431
3,CCCCN1C(=O)C(NC(C)=O)c2cc(Br)ccc21 (stereo not given),0.326
4,CCOC(=O)c1sc(NC(=O)C(CC)Sc2nnc3c4ccccc4n(C(C)C)c3n2)nc1C (stereo not given),-0.215
5,Nc1c(S(=O)(=O)c2ccccc2)cnc2c(-c3ccc(F)cc3)cnn12,-0.173
6,CN(C)/C=N/c1cnc(C(=O)c2ccc(Cl)cc2)n1C,0.659
7,CCOc1ccc(N(CC(=O)OC)S(=O)(=O)c2c(C)noc2C)cc1,-0.249
8,C=CCn1c(COc2ccc(OC)cc2)nnc1SCn1nnc2ccccc2c1=O,0.126
9,Cc1cc(C)cc(-n2c(C)cc(/C=N/NC(=O)CN(c3c(C)cccc3C)S(C)(=O)=O)c2C)c1,-0.0981
10,Cc1ccc(S(=O)(=O)N2CCN(S(=O)(=O)N3CCOCC3)CC2)cc1,-0.0174
11,COCCNC(=S)N/N=C/c1ccc(OCc2ccc(C(=O)OC)cc2)cc1,-0.179
12,CCC1Oc2ccccc2N(CC(=O)Nc2ccc3c(c2)OCCO3)C1=O (stereo not given),0.33
13,Cc1ccccc1C(=O)NC(C)C(c1cccs1)N1CCOCC1 (stereo not given),0.427
14,CCSc1nnc(-c2cc3c(s2)-c2ccccc2CC3)o1,0.000914
15,COc1ccc(C2C(C(=O)N3CCN(c4ccccc4F)CC3)c3ccccc3C(=O)N2C)cc1 (stereo not given),-0.244
16,CC(=O)c1cc(Cc2csc(C(C)=O)c2)cs1,-0.0432
17,Cc1ccc(N2CCN(CCCN3C(=O)C4CCCN4C3=O)CC2)cc1 (stereo not given),-0.337
18,CC1CN(c2cc(=O)n(Cc3ccc(F)cc3)c(=O)[nH]2)CC(C)O1 (stereo not given),0.061
19,CCN(CC)C(=O)Cn1cnc([N+](=O)[O-])n1,0.255
20,Cc1occc1C(=O)Nc1nn[nH]n1,0.196
21,CN(C)Cc1nc2ccccc2c(=O)n1Cc1nc(-c2cc3ccccc3o2)cs1,-0.69
22,Cc1cc(C(=O)Nc2sc3c(c2C#N)CCCCC3)cs1,-0.0794

row,Structure (SMILES),z-score
1,CC1=C(C(=O)Nc2ccccc2)C2(CCCCC2)C(C#N)=C(SCC(N)=O)N1,-0.0722
2,COc1ccc(CCNC(=O)Cc2cccs2)cc1,-0.268
3,CC(=O)N(C)c1ccc(NC(=O)/C=C/c2ccccc2Cl)cc1,0.368
4,Cc1ccc(C(=O)NC(=S)Nn2cnnc2)cc1,-0.262
5,CN(C)c1ccc(/C=N/NC(=O)CN(c2cccc(Cl)c2)S(C)(=O)=O)cc1Br,-0.0306
6,Cc1ccc(-n2ccnc2SCC(=O)N(CC(C)C)C2CCS(=O)(=O)C2)c(C)c1 (stereo not given),-1.54
7,COc1ccc(-c2cc(C(=O)Nc3sc4c(c3C#N)CCCC4)c3ccccc3n2)cc1OC,0.0122
8,Cc1cccc2nc(CSc3nnc4ccccn34)cn12,0.146
9,CCOC(=O)/C(C(=O)Nc1ccc(Cl)cc1Cl)=C1/NC(C)(C)Cc2ccccc21,-0.0362
10,Cc1ccc(C)c2c1cc(C)c1nnc(SCC(=O)N3CCCc4ccccc43)n12,0.144
11,Cc1nn(-c2ccccn2)c2c1C(c1ccccn1)C1=C(CCCC1=O)N2 (stereo not given),-0.189
12,COCCOC(=O)c1c(C)oc2ccc(OCC=C(C)C)cc12,1.29
13,O=C(CN1CCOCC1)Nc1nc(-c2ccc3c(c2)CCN3S(=O)(=O)c2ccccc2)cs1,0.727
14,CCOCCn1c(N2CCN(c3ccc(OC)cc3)CC2)nc2c1c(=O)n(C)c(=O)n2C,-0.306
15,Cc1ccc(NC(=O)C(=O)N2CCCC2)cc1Cl,-0.336
16,CC(=O)c1cc2c(cc1NC(=O)CSc1nc3ccccc3[nH]1)OCO2,0.371
17,CC(C)(CN1CCCCC1)NS(=O)(=O)c1ccc(Cl)cc1,0.0698
18,CCOC(=O)c1ccc(NC(=O)C2CCCN(S(=O)(=O)c3ccc(F)cc3)C2)cc1 (stereo not given),-0.355
19,CCOC(=O)C1C(=O)CC(C)(O)C(C(=O)OCC)C1c1ccc(Br)cc1 (stereo not given),-0.013
20,Cc1ccc(C(=O)OCC(=O)Nc2ccc3c(c2)OCO3)cc1S(=O)(=O)N1CCOCC1,-0.367
21,O=C(CCCC(=O)OCC(=O)c1ccc(Cl)cc1Cl)Nc1cc(C(F)(F)F)ccc1Cl,0.227
22,CCS(=O)(=O)N1CCCC(C(=O)NCc2ccccc2Cl)C1 (stereo not given),0.358
